Structures are written as SMILES. Hit rate of the full screen: of about 310,000 compounds, about 2,200 (0.71%) showed an effect of 50% or more. Effects have a minus sign here. The list shows a part of the results.

The values below come from PMC4336329 (PLoS ONE, 2015).

For this test, the target named is human ether-à-go-go-related gene (hERG) potassium channel (human, UniProt Q12809). In words: primary screen, population patch clamp on CHO cells stably expressing hERG.
Sequence of human ether-à-go-go-related gene (hERG) potassium channel (Q12809 whole entry, looked up): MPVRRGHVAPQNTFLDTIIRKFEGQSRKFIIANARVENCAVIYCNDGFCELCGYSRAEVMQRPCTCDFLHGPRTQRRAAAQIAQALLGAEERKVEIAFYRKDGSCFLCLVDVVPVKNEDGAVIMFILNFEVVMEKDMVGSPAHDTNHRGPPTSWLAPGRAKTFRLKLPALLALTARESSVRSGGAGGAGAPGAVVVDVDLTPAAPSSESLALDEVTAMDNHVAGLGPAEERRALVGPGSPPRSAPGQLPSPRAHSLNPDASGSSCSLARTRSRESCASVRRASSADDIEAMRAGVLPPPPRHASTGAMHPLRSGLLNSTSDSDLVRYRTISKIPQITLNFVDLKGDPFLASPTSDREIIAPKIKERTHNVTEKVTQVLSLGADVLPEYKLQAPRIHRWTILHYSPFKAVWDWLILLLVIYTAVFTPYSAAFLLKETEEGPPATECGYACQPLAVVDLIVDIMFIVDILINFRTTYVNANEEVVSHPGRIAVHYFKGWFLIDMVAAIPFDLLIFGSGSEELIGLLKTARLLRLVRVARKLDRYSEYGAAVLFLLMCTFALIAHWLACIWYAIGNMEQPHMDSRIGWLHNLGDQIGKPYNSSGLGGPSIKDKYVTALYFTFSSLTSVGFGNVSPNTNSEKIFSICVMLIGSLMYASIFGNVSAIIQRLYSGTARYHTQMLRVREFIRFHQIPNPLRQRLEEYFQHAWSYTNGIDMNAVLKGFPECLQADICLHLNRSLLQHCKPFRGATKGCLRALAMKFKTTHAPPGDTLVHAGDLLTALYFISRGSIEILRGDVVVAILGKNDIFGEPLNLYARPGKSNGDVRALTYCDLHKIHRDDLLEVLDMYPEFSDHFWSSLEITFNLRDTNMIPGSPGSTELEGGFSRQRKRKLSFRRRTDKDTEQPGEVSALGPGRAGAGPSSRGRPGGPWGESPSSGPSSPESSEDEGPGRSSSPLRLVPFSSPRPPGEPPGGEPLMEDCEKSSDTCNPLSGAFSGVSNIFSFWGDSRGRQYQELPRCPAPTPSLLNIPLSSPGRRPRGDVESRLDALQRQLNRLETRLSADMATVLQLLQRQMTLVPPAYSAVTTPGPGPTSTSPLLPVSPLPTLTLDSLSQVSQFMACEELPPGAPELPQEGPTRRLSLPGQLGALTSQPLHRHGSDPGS
Consider `COC(=O)/C(=N/Nc1cccc(C)c1)N1CCCc2ccccc21`, for which the “hERG current change (%, negative = inhibition) at 1uM” value is given as 1.77%.

Consider `COc1ccc2cc(CCNC(=O)C3CCCC3)c(=O)[nH]c2c1`, for which the “hERG current change (%, negative = inhibition) at 1uM” value turned out to be 7.05%. The value for `CC1CCN(CC(O)COCCC23CC4CC(CC(C4)C2)C3)CC1.Cl` (stereo not drawn) was -7.11%; that for `CC(=O)Nc1ccc(NC2CCCCC2NS(=O)(=O)c2ccc(Cl)cc2)cc1` (stereo not drawn) was 12%.

With `O=C(NNC(=O)c1ccc(F)c(S(=O)(=O)N2CCOCC2)c1)c1ccc(Br)cc1`, the “hERG current change (%, negative = inhibition) at 1uM” value is 0.208%. On to `CCOC(=O)c1nn(-c2ccccc2)c(C#N)c1N`, for which the “hERG current change (%, negative = inhibition) at 1uM” value is listed as 3.93%. The value for `O=C(CCC1COc2ccccc2O1)Nc1ccc(Cl)cn1` (stereo not drawn) was 3.03%; that for `O=C(Oc1ccc2ccccc2c1)c1ccco1` was -0.657%; that for `O=C(CSc1nnc(-c2ccc(OC(F)F)cc2)o1)N1CCOCC1` was -16.1%. `Cc1nc2ccc(C(=O)N3CCCC(CO)(Cc4ccc(F)cc4F)C3)cc2nc1C` (stereo not drawn): the “hERG current change (%, negative = inhibition) at 1uM” value is 3.69%. In the case of `COC/C=C/C1=CC(=O)C[C@H](c2ccc3c(c2)OCO3)C1`, the “hERG current change (%, negative = inhibition) at 1uM” value was 3.61%. The value for `CSc1nc(-c2ccc(Cl)cc2)nn1C(=O)c1ccccc1` was 1.81%. As to `O=C(N/C(=C/c1cccnc1)C(=O)N1CCCCCC1)c1ccccc1`, the “hERG current change (%, negative = inhibition) at 1uM” value was determined as 6.71%. With `COc1ccc(C(=O)c2c(C)c3ccccc3n2CC(O)CNC(C)C)cc1.Cl` (stereo not drawn), the “hERG current change (%, negative = inhibition) at 1uM” value was -0.594%. As for `O=C(c1ccc(S(=O)(=O)NCC2CCCO2)cc1)N1CCN(c2ccccc2)CC1` (stereo not drawn), the “hERG current change (%, negative = inhibition) at 1uM” value is given as 9.22%.

For the molecule `COCCN1Cc2cccc(C(=O)Nc3cc(C)cc(C)c3)c2C1=O`, the “hERG current change (%, negative = inhibition) at 1uM” value was found to be 10.6%.

On to `Fc1ccc(CSc2ncnc3nc[nH]c23)cc1`, for which the “hERG current change (%, negative = inhibition) at 1uM” value was determined as 13.1%.

Turning to `O=C(CC1SC(=NCC2CCCO2)NC1=O)Nc1cc([N+](=O)[O-])ccc1Cl` (stereo not drawn), the “hERG current change (%, negative = inhibition) at 1uM” value is on record as -0.884%. Take `COc1ccc(OC)c(C2CC(c3c(-c4ccccc4)c4cc(Cl)ccc4[nH]c3=O)=NN2S(C)(=O)=O)c1` (stereo not drawn): the “hERG current change (%, negative = inhibition) at 1uM” value was 7.3%. For the molecule `CCOc1ccc2oc(C(=O)N3CC(C)OC(C)C3)c(C)c2c1` (stereo not drawn), the “hERG current change (%, negative = inhibition) at 1uM” value was 21.5%. The value for `O=C(/C(=N\O)n1cncn1)c1ccc(Cl)cc1Cl` was 15.2%; that for `CN(Cc1ccccc1)C(=O)c1nc2ccccn2c1CNCCOc1cccnc1` was 4.94%; that for `COc1ccccc1N=C1SC(C(=O)Nc2cccc(Cl)c2Cl)C(N)=C1C(N)=O` (stereo not drawn) was 14.1%. As to `O=C(Nc1cccnc1)C1OCCc2ccccc21` (stereo not drawn), the “hERG current change (%, negative = inhibition) at 1uM” value stood at 4.87%. In the case of `O=C1NC(=O)C2C1C(c1cccs1)NN2Cc1ccccc1` (stereo not drawn), the “hERG current change (%, negative = inhibition) at 1uM” value turned out to be 13.7%.

Turning to `Cc1nnc(N/N=C/c2ccccc2F)n1N`, the “hERG current change (%, negative = inhibition) at 1uM” value worked out at 12.7%. Regarding `CCOc1ccc(CNn2cnnc2)cc1`, the “hERG current change (%, negative = inhibition) at 1uM” value is 3.03%. The value for `COC(=O)c1sccc1NC(=O)Nc1ccc(C(C)=O)cc1` was 13.2%. The value for `CC(=O)c1sc(NC(=O)COc2ccccc2)nc1C` was 1.38%; that for `Cc1csc2nc(CNC(=O)C3CCCCC3)cn12` was 6.7%. Then `O=C(NC1CC1)C1=C[C@@H](C2CC2)C[C@@H](OCc2ccc(CO)cc2)O1`, with 9.99%.

As for `C=CCn1c(SCC(=O)N2CCN(C(=O)c3ccco3)CC2)nc2sc(CC)cc2c1=O`, the “hERG current change (%, negative = inhibition) at 1uM” value is on record as -85.6%. Then `Cc1ccc(C(=O)Nc2ccc(S(=O)(=O)NC3=NCCCCC3)cc2)cc1S(=O)(=O)N1CCOCC1`, with 18.1%; and `N#CC1=C(N)n2c(s/c(=C\c3cccs3)c2=O)=C(C#N)C1c1cccs1` (stereo not drawn), with 6.45%. For `COC(=O)C1=C(C)OC(N)=C(C#N)C1c1c(C)nn(C)c1C` (stereo not drawn), the “hERG current change (%, negative = inhibition) at 1uM” value came to 8.63%. On to `CCOc1ccc(C(=O)Nc2ccc(-c3cc4ccccc4oc3=O)c(C)c2)cc1[N+](=O)[O-]`, for which the “hERG current change (%, negative = inhibition) at 1uM” value is 9.39%. Then `COCCN1C(=O)C(O)=C(C(C)=O)C1c1ccc(OC)c(OC)c1` (stereo not drawn), with 11.6%; and `Cc1ccc(NC(=O)CN(C)S(=O)(=O)c2ccc3[nH]c(=O)oc3c2)c(C)c1`, with -9.83%; and `Cc1ccccc1NC(=O)CSc1nc2c(c(=O)n(C)c(=O)n2C)n1C`, with -0.914%. For `CN1c2ccsc2/C(=N/Nc2ccc(F)cc2)CS1(=O)=O`, the “hERG current change (%, negative = inhibition) at 1uM” value turned out to be 16.9%. As for `Cc1cccc(C(=O)NNC(=O)c2ccc(O)cc2)c1`, the “hERG current change (%, negative = inhibition) at 1uM” value is given as 0.387%. With `COc1ccc(-c2cc(C(=O)NCCCn3ccnc3)no2)cc1OC`, the “hERG current change (%, negative = inhibition) at 1uM” value was 14%.

`Cc1cccc(OCC(=O)Nc2ccc(S(=O)(=O)Nc3cc(C)nc(C)n3)cc2)c1`: the “hERG current change (%, negative = inhibition) at 1uM” value is 6.43%.

As to `COC(=O)c1ccccc1NC(=O)N1CCN(c2ccccc2)CC1`, the “hERG current change (%, negative = inhibition) at 1uM” value is reported as 16.9%. `Cc1cccc(-c2oc3ccc(-c4ccc5c(c4)OCO5)cc3c2-c2ccc(OC3CCCCO3)cc2)c1` (stereo not drawn): the “hERG current change (%, negative = inhibition) at 1uM” value was 14.1%.
